# The campaign covered roughly 110,000 compounds. About 230 (0.21%) showed an effect of 50% or more. The list shows a part of the results.
# Target: DPAP1 (Plasmodium falciparum, UniProt Q8IIJ9)
# Test: primary screen, percent inhibition; read by cleavage of a fluorogenic dipeptide substrate; higher = more effect of the substance
# Set-up: species or system P. falciparum D10 trophozoite lysates; single well
# 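Also: 30 min substrate incubation versus DMSO and 10 µM JCP410 controls.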
# Sequence of DPAP1 (Q8IIJ9 whole entry, looked up): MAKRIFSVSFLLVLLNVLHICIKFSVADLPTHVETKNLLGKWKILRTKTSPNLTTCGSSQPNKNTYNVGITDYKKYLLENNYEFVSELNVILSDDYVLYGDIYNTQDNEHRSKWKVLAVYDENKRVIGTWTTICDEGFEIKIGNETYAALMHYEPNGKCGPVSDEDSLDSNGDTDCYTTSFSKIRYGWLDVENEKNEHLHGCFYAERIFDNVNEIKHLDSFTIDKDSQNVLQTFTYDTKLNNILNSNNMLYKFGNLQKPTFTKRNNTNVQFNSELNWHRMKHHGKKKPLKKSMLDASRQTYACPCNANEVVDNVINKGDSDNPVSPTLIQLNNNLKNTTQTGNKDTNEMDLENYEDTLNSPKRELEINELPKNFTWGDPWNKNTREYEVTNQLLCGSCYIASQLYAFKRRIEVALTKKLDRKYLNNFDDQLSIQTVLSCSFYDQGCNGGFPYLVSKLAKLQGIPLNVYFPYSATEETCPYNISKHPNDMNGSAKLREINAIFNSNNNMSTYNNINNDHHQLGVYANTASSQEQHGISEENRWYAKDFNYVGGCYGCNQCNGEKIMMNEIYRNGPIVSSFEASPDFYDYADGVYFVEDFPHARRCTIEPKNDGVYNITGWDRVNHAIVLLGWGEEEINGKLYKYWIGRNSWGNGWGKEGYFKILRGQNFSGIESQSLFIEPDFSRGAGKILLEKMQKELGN
row,SMILES,% Inhibition @ 10 uM [%]
1,COc1ccc(CNc2oc(COc3ccccc3C)nc2C#N)cc1,4.74
2,Cc1cccn2c(=O)c3cc(C(=O)N(Cc4ccccc4)C(C)C)n(C)c3nc12,1.68
3,O=c1c2cc(-c3ccccc3)sc2nnn1Cc1ccc(F)cc1,7.04
4,CCn1c(C)cc(/C=C/c2oc3ccccc3[n+]2CC)c1C,8.97
5,CN1CCN(Cc2ccc3ccccc3c2)CC1,-6.82
6,CS(=O)(=O)C1=NSC2=NC(=O)/C(=C\c3cc(Cl)c(O)c(Cl)c3)C(=N)N21,1.85
7,CN(C)CCN1C(=O)C(O)=C(C(=O)c2cc3ccccc3o2)C1c1ccco1 (stereo not shown),2.1
8,Cc1nn(C)c2c1c(-c1ccccc1)cc(=O)n2Cc1ccc(C#N)cc1,5.73
9,COc1cc2c(cc1OC)-c1nc3ccccc3c(=O)n1C(C)(C)C2,5.08
10,O=C1NC(=O)NC2(N1)C(=O)Nc1ccccc12,4.84
11,NC(=O)COc1ccccc1/C=C1/SC(=O)N(Cc2ccc(F)cc2)C1=O,5.31
12,O=c1c2ccccc2n2c(-c3ccsc3)nnc2n1CCc1ccccc1,-7.29
13,CCOC(=O)C1=c2s/c(=C/c3ccccc3F)c(=O)n2C(N)=C(C#N)C1c1ccccc1F (stereo not shown),-0.053
14,Cc1cccc(Nc2ncnc3c2cnn3C)n1,-1.1
15,O=C(Cn1ncc2c3ccccc3n(Cc3ccccc3)c2c1=O)NCCN1CCCCCC1,0.137
16,CCCCC(=O)NC1(C(F)(F)F)C(=O)N(C2CCCCC2)C(C)=C1C(=O)OCC (stereo not shown),3.54
17,N#CC1=C(N)Oc2ccc(N)cc2C1c1ccccc1F (stereo not shown),2.38
18,O=C(c1ccc(Cl)cc1)N1CCN(c2ccc(F)cc2)CC1,-2.78
19,CC(=O)c1ccc(OC(C)C)c(CN2CCCCC2)c1,0.962
20,CCOC(=O)c1c(N/C(=C/C(=O)c2cccc(OC)c2)C(=O)O)sc2c1CCCC2,-4.03
21,COc1cc2c(C(=O)N(C)C3CCCCC3)c(-c3ccc(SC)cc3)n(C)c(=O)c2cc1OC,0.231
22,COc1ccc(NC(c2ccccn2)c2ccc3cccnc3c2O)cc1 (stereo not shown),-6.44
23,C=C1c2ccc(C)cc2NC(=O)N1c1ccccc1,-3.37
24,CCCN(Cc1ccccc1O)CC1CC1,3.35
25,COc1ccc(CCN2CC(C(=O)O)CC2=O)cc1 (stereo not shown),-5.38
26,CCOc1cc(C2CC(=O)NC3=C2C(=O)CC(C)(C)C3)ccc1O (stereo not shown),-1.92
27,COc1cccc(-c2cc(C(=O)O)c3cc(C)cc(C)c3n2)c1,-4.89
28,CCN1CCC2(CC1)OC(=O)C(C)=C2C(=O)NCCCN1CCC(Cc2ccccc2)CC1,-2.13

# From PMC6919601, “Identification of Plasmodium dipeptidyl aminopeptidase allosteric inhibitors by high throughput screening” (PLoS ONE, 2019)
